# In the supplement of paper PMC8728848:
# The list shows a part of the results.
# B1: MpAFP NterminalRI GFP (Marinomonas primoryensis) (protein)
# chain: MSDNQFPFATLGNAIGFITKLDGSVTVQSIDGQERVLKLGDPIFFGETVLTGGSGSVTIAFVDGTDVVIGGDSIVEMTDEIYNTGDNEDLVADSSSEIDALQNAILAGDDPTLIQDAPAAGNTLADQQRVDVSIERNDNSAQAGFGVDTQSSLPTYGYDTDNGNGGQATEREYSAPSLSRTLNQSPLLEHHHHHH
# Legend:
# Experiment in all cases: glycan array binding signal (z-score within array); higher = stronger binding
# Conditions in all cases: glycan notation: IUPAC condensed, linker removed
# [1] = biological target: Neu5Ac(a2-6)Gal(b1-4)GlcNAc(b1-2)Man(a1-3)[Neu5Ac(a2-3)Gal(b1-4)GlcNAc(b1-2)Man(a1-6)]Man(b1-4)GlcNAc(b1-4)GlcNAc
# Method in brief: (§1)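 The binding signal is a Z-score computed within each array. Data were drawn from 3228 arrays in the Consortium for Functional Glycomics database, restricted to those with a known protein sequence. Scores were averaged over arrays of the same protein sequence at different concentrations or buffers, and over linkers, and negative values can be taken as non-binding.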
# [2] = biological target: Neu5Ac(a2-6)Gal(b1-4)GlcNAc(b1-2)Man(a1-3)[Neu5Ac(a2-6)Gal(b1-4)GlcNAc(b1-2)Man(a1-6)]Man(b1-4)GlcNAc(b1-4)GlcNAc
# Method in brief: as §1
# [3] = biological target: Neu5Ac(a2-6)Gal(b1-4)GlcNAc(b1-2)Man(a1-3)[Neu5Ac(a2-6)Gal(b1-4)GlcNAc(b1-2)Man(a1-6)]Man(b1-4)GlcNAc(b1-4)[Fuc(a1-6)]GlcNAc
# Method in brief: as §1
# [4] = biological target: Neu5Ac(a2-6)Gal(b1-4)GlcNAc(b1-2)Man(a1-6)Man(b1-4)GlcNAc(b1-4)GlcNAc
# Method in brief: as §1
# [5] = biological target: Neu5Ac(a2-6)Gal(b1-4)GlcNAc(b1-2)Man(a1-6)[Gal(b1-4)GlcNAc(b1-2)Man(a1-3)]Man(b1-4)GlcNAc(b1-4)GlcNAc
# Method in brief: as §1
# [6] = biological target: Neu5Ac(a2-6)Gal(b1-4)GlcNAc(b1-2)Man(a1-6)[GlcNAc(b1-2)Man(a1-3)]Man(b1-4)GlcNAc(b1-4)GlcNAc
# Method in brief: as §1
# [7] = biological target: Neu5Ac(a2-6)Gal(b1-4)GlcNAc(b1-2)Man(a1-6)[Man(a1-3)]Man(b1-4)GlcNAc(b1-4)GlcNAc
# Method in brief: as §1
# [8] = biological target: Neu5Ac(a2-6)Gal(b1-4)GlcNAc(b1-2)[Neu5Ac(a2-6)Gal(b1-4)GlcNAc(b1-4)]Man(a1-3)[GlcNAc(b1-4)][Neu5Ac(a2-6)Gal(b1-4)GlcNAc(b1-2)[Neu5Ac(a2-6)Gal(b1-4)GlcNAc(b1-6)]Man(a1-6)]Man(b1-4)GlcNAc(b1-4)GlcNAc
# Method in brief: as §1
# [9] = biological target: Neu5Ac(a2-6)Gal(b1-4)GlcNAc(b1-2)[Neu5Ac(a2-6)Gal(b1-4)GlcNAc(b1-4)]Man(a1-3)[GlcNAc(b1-4)][Neu5Ac(a2-6)Gal(b1-4)GlcNAc(b1-4)Man(a1-6)]Man(b1-4)GlcNAc(b1-4)GlcNAc
# Method in brief: as §1
# [10] = biological target: Neu5Ac(a2-6)Gal(b1-4)GlcNAc(b1-2)[Neu5Ac(a2-6)Gal(b1-4)GlcNAc(b1-6)]Man(a1-6)[Neu5Ac(a2-6)Gal(b1-4)GlcNAc(b1-2)Man(a1-3)][GlcNAc(b1-4)]Man(b1-4)GlcNAc(b1-4)GlcNAc
# Method in brief: as §1
# [11] = biological target: Neu5Ac(a2-6)Gal(b1-4)GlcNAc(b1-3)Gal(b1-3)GlcNAc
# Method in brief: as §1
# [12] = biological target: Neu5Ac(a2-6)Gal(b1-4)GlcNAc(b1-3)Gal(b1-4)GlcNAc
# Method in brief: as §1
# [13] = biological target: Neu5Ac(a2-6)Gal(b1-4)GlcNAc(b1-3)Gal(b1-4)GlcNAc(b1-2)Man(a1-3)[Neu5Ac(a2-6)Gal(b1-4)GlcNAc(b1-3)Gal(b1-4)GlcNAc(b1-2)Man(a1-6)]GalNAc
# Method in brief: as §1
# [14] = biological target: Neu5Ac(a2-6)Gal(b1-4)GlcNAc(b1-3)Gal(b1-4)GlcNAc(b1-3)Gal(b1-4)GlcNAc
# Method in brief: as §1
# [15] = biological target: Neu5Ac(a2-6)Gal(b1-4)GlcNAc(b1-3)Gal(b1-4)GlcNAc(b1-3)Gal(b1-4)GlcNAc(b1-2)Man(a1-3)[Neu5Ac(a2-6)Gal(b1-4)GlcNAc(b1-3)Gal(b1-4)GlcNAc(b1-3)Gal(b1-4)GlcNAc(b1-2)Man(a1-6)]GalNAc
# Method in brief: as §1
# [16] = biological target: Neu5Ac(a2-6)Gal(b1-4)GlcNAc(b1-3)Gal(b1-4)GlcNAc(b1-3)GalNAc
# Method in brief: as §1
# [17] = biological target: Neu5Ac(a2-6)Gal(b1-4)GlcNAc(b1-3)Gal(b1-4)GlcNAc(b1-3)[Neu5Ac(a2-6)Gal(b1-4)GlcNAc(b1-3)Gal(b1-4)GlcNAc(b1-6)]GalNAc
# Method in brief: as §1
# [18] = biological target: Neu5Ac(a2-6)Gal(b1-4)GlcNAc(b1-3)Gal(b1-4)GlcNAc(b1-6)[Gal(b1-3)]GalNAc
# Method in brief: as §1
# [19] = biological target: Neu5Ac(a2-6)Gal(b1-4)GlcNAc(b1-3)Gal(b1-4)[Fuc(a1-3)]GlcNAc(b1-3)Gal(b1-4)[Fuc(a1-3)]GlcNAc
# Method in brief: as §1
# [20] = biological target: Neu5Ac(a2-6)Gal(b1-4)GlcNAc(b1-3)GalNAc
# Method in brief: as §1
# [21] = biological target: Neu5Ac(a2-6)Gal(b1-4)GlcNAc(b1-3)[Neu5Ac(a2-6)Gal(b1-4)GlcNAc(b1-6)]GalNAc
# Method in brief: as §1
# [22] = biological target: Neu5Ac(a2-6)Gal(b1-4)GlcNAc(b1-6)GalNAc
# Method in brief: as §1
# [23] = biological target: Neu5Ac(a2-6)Gal(b1-4)GlcNAc(b1-6)[Gal(b1-3)GlcNAc(b1-3)]Gal(b1-4)Glc
# Method in brief: as §1
# [24] = biological target: Neu5Ac(a2-6)Gal(b1-4)GlcNAc(b1-6)[Gal(b1-3)]GalNAc
# Method in brief: as §1
# [25] = biological target: Neu5Ac(a2-6)Gal(b1-4)GlcNAc6S
# Method in brief: as §1
# Neu5Ac(a2-6)GalNAc = biological target: Neu5Ac(a2-6)GalNAc
# Method in brief: as §1
# [26] = biological target: Neu5Ac(a2-6)GalNAc(b1-4)GlcNAc
# Method in brief: as §1
# [27] = biological target: Neu5Ac(a2-6)GalNAc(b1-4)GlcNAc6S
# Method in brief: as §1
# [28] = biological target: Neu5Ac(a2-6)GlcNAc(b1-4)GlcNAc
# Method in brief: as §1
# [29] = biological target: Neu5Ac(a2-6)GlcNAc(b1-4)GlcNAc(b1-4)GlcNAc
# Method in brief: as §1
binder,measurement,setting,value
B1,glycan array binding signal (z-score),[1],-0.415
same,glycan array binding signal (z-score),[2],0.228
same,glycan array binding signal (z-score),[3],1.26
same,glycan array binding signal (z-score),[4],-0.385
same,glycan array binding signal (z-score),[5],-0.379
same,glycan array binding signal (z-score),[6],-0.309
same,glycan array binding signal (z-score),[7],-0.379
same,glycan array binding signal (z-score),[8],-0.293
same,glycan array binding signal (z-score),[9],-0.301
same,glycan array binding signal (z-score),[10],-0.087
same,glycan array binding signal (z-score),[11],-0.373
same,glycan array binding signal (z-score),[12],-0.602
same,glycan array binding signal (z-score),[13],-0.301
same,glycan array binding signal (z-score),[14],0.403
same,glycan array binding signal (z-score),[15],1.24
same,glycan array binding signal (z-score),[16],-0.295
same,glycan array binding signal (z-score),[17],-0.027
same,glycan array binding signal (z-score),[18],-0.349
same,glycan array binding signal (z-score),[19],-0.212
same,glycan array binding signal (z-score),[20],-0.371
same,glycan array binding signal (z-score),[21],-0.449
same,glycan array binding signal (z-score),[22],0.027
same,glycan array binding signal (z-score),[23],-0.149
same,glycan array binding signal (z-score),[24],-0.144
same,glycan array binding signal (z-score),[25],-0.409
same,glycan array binding signal (z-score),Neu5Ac(a2-6)GalNAc,-0.388
same,glycan array binding signal (z-score),[26],-0.549
same,glycan array binding signal (z-score),[27],-0.222
same,glycan array binding signal (z-score),[28],-0.431
same,glycan array binding signal (z-score),[29],0.523
